According to the supplement of paper PMC7125110:
This sample is rich in variants without activity.

B1: glmS ribozyme (parent)
chain: AUAAAAGCGCCAGAACUACAGAAAUGUAGUUGACGAGGAGGAGGUUUAUCGAAUUUUCGGCGGAUGCCUCCAAA

Key:
Conditions in all cases: with glucosamine-6-phosphate
[1] = variants of: B1; assay: self-cleavage kobs at 640 uM GlcN6P; higher = faster cleavage; RNA array
Outline: (§1)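 On sequenced MiSeq chips, barcoded ribozyme variants were made in situ by E. coli RNA polymerase and followed at 37 °C through a hybridised Cy3 probe. Glucosamine-6-phosphate was flowed in at 40 μM to 10 mM in HEPES/KCl/Mg(OAc)2 buffer. Exponential fits to normalised per-tile medians gave kobs, and weighted Michaelis–Menten fits gave kcat and KM.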

[2] = variants of: B1; assay: self-cleavage kobs at 160 uM GlcN6P; higher = faster cleavage; RNA array
Outline: as §1

[3] = variants of: B1; assay: self-cleavage kobs at 2500 uM GlcN6P; higher = faster cleavage; RNA array
Outline: as §1

[4] = variants of: B1; assay: self-cleavage kobs at 10000 uM GlcN6P; higher = faster cleavage; RNA array
Outline: as §1

Variant: AUAAAAGCGCCAGAACUACAGAAAUGUAGUUGAUGAGGAGGAGGUUUAUCGUAUUUUCGGCGGAUGCCUCCAAA [C34U A52U]
- self-cleavage kobs at 640 uM GlcN6P [1]: < 1e-05 s⁻¹
- self-cleavage kobs at 160 uM GlcN6P [2]: < 1e-05 s⁻¹
- self-cleavage kobs at 2500 uM GlcN6P [3]: < 1e-05 s⁻¹
- self-cleavage kobs at 10000 uM GlcN6P [4]: < 1e-05 s⁻¹

Variant: AUAAAAGCGCCAGAACUACAGAAAUGUAGUUGACCAGGAGGAGGUUUAUGGAAUUUUCGUCGGAUGCCUCCAAA [G35C C50G G60U]
- self-cleavage kobs at 640 uM GlcN6P [1]: < 1e-05 s⁻¹

Variant: AUAAAAGCGCCAGAACUACAGAAAUGUAGUUGUCGGGGAGGAGGUUUAUAGAAUUUUCGGCGGAUGCCUCCAAA [A33U A36G C50A]
- self-cleavage kobs at 640 uM GlcN6P [1]: < 1e-05 s⁻¹
- self-cleavage kobs at 2500 uM GlcN6P [3]: < 1e-05 s⁻¹

Variant: AUAAAAGCGCCAGAACUACAGAAAUGUAGUUGACCAGGAGGAGGUUUUUCGAAUUUUCGGCGGAUGCAUCCAAA [G35C A48U C68A]
- self-cleavage kobs at 640 uM GlcN6P [1]: < 1e-05 s⁻¹
- self-cleavage kobs at 160 uM GlcN6P [2]: < 1e-05 s⁻¹
- self-cleavage kobs at 2500 uM GlcN6P [3]: < 1e-05 s⁻¹

Variant: AUAAAAGCGCCAGAACUACAGAAAUGUAGUUGACAAGGAGGAGGUUUAUUGGAUUUUCGGCGGAUGCCUCCAAA [G35A C50U A52G]
- self-cleavage kobs at 640 uM GlcN6P [1]: < 1e-05 s⁻¹
- self-cleavage kobs at 2500 uM GlcN6P [3]: < 1e-05 s⁻¹

Variant: AUAAAAGCGCCAGAACUACAGAAAUGUAGUUGAUGAGGAGGAGGUUUAUCGAGUUUUCGGCGGUUGCCUCCAAA [C34U A53G A64U]
- self-cleavage kobs at 640 uM GlcN6P [1]: < 1e-05 s⁻¹
- self-cleavage kobs at 2500 uM GlcN6P [3]: < 1e-05 s⁻¹

Variant: AUAAAAGCGCCAGAACUACAGAAAUGUAGUUGUAGAGGAGUAGGUUUAUCGAAUUUUCGGCGGAUGCCUCCAAA [A33U C34A G41U]
- self-cleavage kobs at 640 uM GlcN6P [1]: < 1e-05 s⁻¹
- self-cleavage kobs at 160 uM GlcN6P [2]: < 1e-05 s⁻¹

Variant: AUAAAAGCGCCAGAACUACAGAAAUGUAGUUGGCGAGGAGGAGGUUCAUCGAAUUUUCGGCGGAUGCCUCCAAA [A33G U47C]
- self-cleavage kobs at 640 uM GlcN6P [1]: < 1e-05 s⁻¹
- self-cleavage kobs at 160 uM GlcN6P [2]: < 1e-05 s⁻¹
- self-cleavage kobs at 2500 uM GlcN6P [3]: < 1e-05 s⁻¹
- self-cleavage kobs at 10000 uM GlcN6P [4]: < 1e-05 s⁻¹

Variant: AUAAAAGCGCCAGAACUACAGAAAUGUAGUUGGCGAGGCGGAGAUUUAUCGAAUUUUCGGCGGAUGCCUCGAAA [A33G A39C G44A C71G]
- self-cleavage kobs at 640 uM GlcN6P [1]: < 1e-05 s⁻¹
- self-cleavage kobs at 2500 uM GlcN6P [3]: < 1e-05 s⁻¹

Variant: AUAAAAGCGCCAGAACUACAGAAAUGUAGUUGACGCGGAGGAGGUUUAUAGAAUUUUCGGCGGAUGCCUCCAAA [A36C C50A]
- self-cleavage kobs at 640 uM GlcN6P [1]: < 1e-05 s⁻¹
- self-cleavage kobs at 10000 uM GlcN6P [4]: < 1e-05 s⁻¹

Variant: AUAAAAGCGCCAGAACUACAGAAAUGUAGUUGGCGAUGAGGAGGUUUAUCGAAUUUUCGGCGGAUGCCUCCAAA [A33G G37U]
- self-cleavage kobs at 640 uM GlcN6P [1]: < 1e-05 s⁻¹
- self-cleavage kobs at 160 uM GlcN6P [2]: < 1e-05 s⁻¹
- self-cleavage kobs at 10000 uM GlcN6P [4]: < 1e-05 s⁻¹

Variant: AUAAAAGCGCCAGAACUACAGAAAUGUAGUUGAUGAGGAGGAGGUUUAUCGAAUUUUCCGAGGAUGCCUCCAAA [C34U G59C C61A]
- self-cleavage kobs at 640 uM GlcN6P [1]: < 1e-05 s⁻¹
- self-cleavage kobs at 160 uM GlcN6P [2]: < 1e-05 s⁻¹
- self-cleavage kobs at 2500 uM GlcN6P [3]: < 1e-05 s⁻¹

Variant: AUAAAAGCGCCAGAACUACAGAAAUGUAGUUGACCAGGAGGAGGUUUAUCGAAUUUUCGGCGGACACCUCCAAA [G35C U65C G66A]
- self-cleavage kobs at 640 uM GlcN6P [1]: < 1e-05 s⁻¹
- self-cleavage kobs at 160 uM GlcN6P [2]: < 1e-05 s⁻¹
- self-cleavage kobs at 2500 uM GlcN6P [3]: < 1e-05 s⁻¹

Variant: AUAAAAGCGCCAGAACUACAGAAAUGUAGUUGACCAGGAAGAGGUGUAUCGAAUUUUCGGCGGAUACCUCCAAA [G35C G40A U46G G66A]
- self-cleavage kobs at 640 uM GlcN6P [1]: < 1e-05 s⁻¹
- self-cleavage kobs at 2500 uM GlcN6P [3]: < 1e-05 s⁻¹

Variant: AUAAAAGCGCCAGAACUACAGAAAUGUAGUUGAUGAGGAGGAGGUUUAUCGAAUUCUCGGCGGAUGCCUCCAAA [C34U U56C]
- self-cleavage kobs at 640 uM GlcN6P [1]: < 1e-05 s⁻¹
- self-cleavage kobs at 160 uM GlcN6P [2]: < 1e-05 s⁻¹
- self-cleavage kobs at 2500 uM GlcN6P [3]: < 1e-05 s⁻¹
- self-cleavage kobs at 10000 uM GlcN6P [4]: < 1e-05 s⁻¹
